Holding throughout (assay): co-IP; GFP-Trap magnetic agarose beads, lysates of transfected 293FT cells, Benzonase-treated, 200 mM NaCl, 2 mM EDTA, 2 h at 4 °C, western blotting
The target in test [1] is GFP-tagged WT RPA1 (UniProt P27694).
The target in test [2] is GFP-tagged R41E/Y42F RPA1 (UniProt P27694).
The target in test [3] is T1, GFP-tagged wild-type RMI1 (human) (UniProt Q9H9A7).
T1 sequence: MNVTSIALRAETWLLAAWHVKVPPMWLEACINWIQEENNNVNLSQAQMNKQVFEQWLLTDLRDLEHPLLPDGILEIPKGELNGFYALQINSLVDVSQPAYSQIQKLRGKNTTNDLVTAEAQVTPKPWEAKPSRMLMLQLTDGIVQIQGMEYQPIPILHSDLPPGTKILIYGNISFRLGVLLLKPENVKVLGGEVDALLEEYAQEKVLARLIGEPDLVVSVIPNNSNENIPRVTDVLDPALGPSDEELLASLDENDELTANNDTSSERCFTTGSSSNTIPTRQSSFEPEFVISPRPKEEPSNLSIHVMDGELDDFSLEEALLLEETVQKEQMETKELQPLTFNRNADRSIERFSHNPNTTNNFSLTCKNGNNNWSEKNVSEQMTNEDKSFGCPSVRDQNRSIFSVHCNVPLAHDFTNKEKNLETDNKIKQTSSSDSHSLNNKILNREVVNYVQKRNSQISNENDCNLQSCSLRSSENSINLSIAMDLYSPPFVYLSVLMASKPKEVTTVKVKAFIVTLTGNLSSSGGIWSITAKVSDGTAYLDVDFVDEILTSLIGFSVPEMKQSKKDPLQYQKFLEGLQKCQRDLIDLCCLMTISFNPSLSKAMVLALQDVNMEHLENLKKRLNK

Sequences of proteins named here, by UniProt entry; tags and fusion partners are left off. A change or cut given only in a name is not applied to a line headed by its entry.
UniProt P27694: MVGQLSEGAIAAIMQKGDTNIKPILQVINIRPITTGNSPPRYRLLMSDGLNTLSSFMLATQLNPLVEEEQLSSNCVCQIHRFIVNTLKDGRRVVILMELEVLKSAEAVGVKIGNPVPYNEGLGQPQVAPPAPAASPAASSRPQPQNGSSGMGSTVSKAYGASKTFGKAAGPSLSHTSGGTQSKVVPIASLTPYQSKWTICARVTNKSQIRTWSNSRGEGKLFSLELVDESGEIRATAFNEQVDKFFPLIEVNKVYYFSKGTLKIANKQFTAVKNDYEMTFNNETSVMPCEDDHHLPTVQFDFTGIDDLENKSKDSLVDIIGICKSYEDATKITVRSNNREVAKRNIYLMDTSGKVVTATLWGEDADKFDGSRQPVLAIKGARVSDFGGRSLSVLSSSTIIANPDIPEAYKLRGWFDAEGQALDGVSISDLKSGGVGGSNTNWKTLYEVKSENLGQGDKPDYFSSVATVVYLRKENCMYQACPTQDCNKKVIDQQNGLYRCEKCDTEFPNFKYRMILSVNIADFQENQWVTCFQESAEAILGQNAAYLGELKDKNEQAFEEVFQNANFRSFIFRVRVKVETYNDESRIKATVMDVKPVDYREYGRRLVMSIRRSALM

Test [4] concerns the target T2, GFP-tagged RMI1 with motif 5 deleted (human) (UniProt Q9H9A7).
T2 sequence: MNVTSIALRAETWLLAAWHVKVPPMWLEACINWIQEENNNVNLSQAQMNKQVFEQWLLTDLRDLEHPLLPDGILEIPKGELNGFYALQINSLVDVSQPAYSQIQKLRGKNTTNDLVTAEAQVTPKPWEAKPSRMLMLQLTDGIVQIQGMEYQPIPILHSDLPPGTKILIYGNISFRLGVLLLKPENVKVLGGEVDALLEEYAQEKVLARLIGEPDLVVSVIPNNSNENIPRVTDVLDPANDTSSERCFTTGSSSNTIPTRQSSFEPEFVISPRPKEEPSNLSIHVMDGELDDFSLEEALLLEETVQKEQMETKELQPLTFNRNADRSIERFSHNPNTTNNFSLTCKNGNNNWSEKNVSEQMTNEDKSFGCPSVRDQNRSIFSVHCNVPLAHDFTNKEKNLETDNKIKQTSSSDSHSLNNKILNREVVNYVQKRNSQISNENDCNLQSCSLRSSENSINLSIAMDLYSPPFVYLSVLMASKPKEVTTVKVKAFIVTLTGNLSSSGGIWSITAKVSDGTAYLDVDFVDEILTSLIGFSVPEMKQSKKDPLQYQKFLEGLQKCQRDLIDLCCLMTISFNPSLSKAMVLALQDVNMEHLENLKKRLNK

These are yes or no findings as the source states them, for the method shown. Binding seen in cells or lysates may run through a third protein. Some binding calls cover weakened binding; strength is not graded here. For part of these data: Where a sequence is shown, tags or fusion partners need not be part of it.

B1: TOP3A, endogenous in 293FT cells (protein, UniProt Q13472-1 1-1001)
chain: MIFPVARYALRWLRRPEDRAFSRAAMEMALRGVRKVLCVAEKNDAAKGIADLLSNGRMRRREGLSKFNKIYEFDYHLYGQNVTMVMTSVSGHLLAHDFQMQFRKWQSCNPLVLFEAEIEKYCPENFVDIKKTLERETRQCQALVIWTDCDREGENIGFEIIHVCKAVKPNLQVLRARFSEITPHAVRTACENLTEPDQRVSDAVDVRQELDLRIGAAFTRFQTLRLQRIFPEVLAEQLISYGSCQFPTLGFVVERFKAIQAFVPEIFHRIKVTHDHKDGIVEFNWKRHRLFNHTACLVLYQLCVEDPMATVVEVRSKPKSKWRPQALDTVELEKLASRKLRINAKETMRIAEKLYTQGYISYPRTETNIFPRDLNLTVLVEQQTPDPRWGAFAQSILERGGPTPRNGNKSDQAHPPIHPTKYTNNLQGDEQRLYEFIVRHFLACCSQDAQGQETTVEIDIAQERFVAHGLMILARNYLDVYPYDHWSDKILPVYEQGSHFQPSTVEMVDGETSPPKLLTEADLIALMEKHGIGTDATHAEHIETIKARMYVGLTPDKRFLPGHLGMGLVEGYDSMGYEMSKPDLRAELEADLKLICDGKKDKFVVLRQQVQKYKQVFIEAVAKAKKLDEALAQYFGNGTELAQQEDIYPAMPEPIRKCPQCNKDMVLKTKKNGGFYLSCMGFPECRSAVWLPDSVLEASRDSSVCPVCQPHPVYRLKLKFKRGSLPPTMPLEFVCCIGGCDDTLREILDLRFSGGPPRASQPSGRLQANQSLNRMDNSQHPQPADSRQTGSSKALAQTLPPPTAAGESNSVTCNCGQEAVLLTVRKEGPNRGRQFFKCNGGSCNFFLWADSPNPGAGGPPALAYRPLGASLGCPPGPGIHLGGFGNPGDGSGSGTSCLCSQPSVTRTVQKDGPNKGRQFHTCAKPREQQCGFFQWVDENTAPGTSGAPSWTGDRGRTLESEARSKRPRASSSDMGSTAKKPRKCSLCHQPGHTRPFCPQNR
Take B1: the binding entry in test [1] is recorded as “binds”; in test [2], “no binding”.

B2: RMI2, endogenous in 293FT cells (protein, UniProt Q96E14-1 1-147)
chain: MAAAADSFSGGPAGVRLPRSPPLKVLAEQLRRDAEGGPGAWRLSRAAAGRGPLDLAAVWMQGRVVMADRGEARLRDPSGDFSVRGLERVPRGRPCLVPGKYVMVMGVVQACSPEPCLQAVKMTDLSDNPIHESMWELEVEDLHRNIP
On to B2, for which the binding result in test [1] is given as “binds”; in test [2], “no binding”; in test [3], “binds”; in test [4], “binds”.

Values taken from PMC7838300.
